Out of some 2,100 compounds screened, about 320 (15%) were called active. Inconclusive results, whose numbers are uncertain, are shown with a selection of clear calls. Calls follow the shape of the dose curve; as a rule, active = well fitted cell-killing curve with a large enough effect; inconclusive = small, poorly fitted or top-dose-only effect, or effect the other way; inactive = flat fitted curve, though single readings scatter. A potency beside an inconclusive call is a rough fit, not a confirmed value.
assay: Viability Counterscreen for CMV-Luciferase Assay of Inhibitors of ATXN expression; conditions: HEK-293 CMV-luciferase cells viability, protease fluorescence, 24 h; also: nearly all actives have a fitted effect of over 55% in size
Method in brief: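 In the same wells, a multiplexed format measured viability and then the CMV-luciferase signal in HEK-293 cells following 24 hr compound exposure at several concentrations. The viability substrate was Gly-Phe-AFC at 25 uM final.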
Potency is read from the fitted curve at half-maximal effect; tags tell the direction and shape of the fitted curve.

Question: With `CCCOc1ccc(C(=O)NC(=S)NNC(=O)c2c(-c3ccccc3)noc2C)cc1` as the molecule, how does the Potency read?
Answer: inactive

Question: For `Cc1sc(NC(=O)c2cc(-c3ccc(Cl)cc3)nc3ccccc23)c(C(N)=O)c1C`, which Potency is on record?
Answer: active: 8.91 µM

Question: For `CC(=O)NC(c1cccs1)c1cc(Br)c2cccnc2c1O` (stereo unspecified), which Potency is on record?
Answer: inconclusive: 4.47 µM [cytotoxic, full curve]

Question: With `Cc1cc(C)cc(NC(=O)CSc2nc3[nH]ncc3c(=O)[nH]2)c1` as the molecule, how does the Potency read?
Answer: inconclusive: 3.55 µM [cytotoxic, partial curve, poor fit]

Question: Which Potency does the source give for `COc1ccc(-c2csc(NC(=O)c3ccc(OCC(=O)N4CCOCC4)c(OC)c3)n2)cc1OC` here?
Answer: inconclusive: 22.4 µM [cytotoxic, partial curve, poor fit]

Question: Which Potency does the source give for `N#C/C(=C(/O)c1ccc([N+](=O)[O-])s1)c1nc2ccccc2[nH]1` here?
Answer: inconclusive: 0.355 µM [cytotoxic, full curve, poor fit]

Question: For `Cc1ccc(S(=O)(=O)N(Cc2ccccc2)c2ccccc2C(=O)NCc2ccco2)cc1`, which Potency is on record?
Answer: inconclusive: 15.8 µM [cytotoxic, partial curve, poor fit]

Question: For `O=C(Nc1nnc(C2CC2)o1)c1ccc(S(=O)(=O)N2CCCc3ccccc32)cc1`, which Potency is on record?
Answer: active: 11.2 µM

Question: For `COc1ccc(Cl)cc1C(=O)Nc1ccccc1N1CCN(C(=O)C(C)C)CC1`, which Potency is on record?
Answer: inactive

Question: For `Cc1cc(OCCCCCn2ccnc2)cc(C)c1Cl`, which Potency is on record?
Answer: inconclusive: 10 µM [cytotoxic, partial curve, poor fit]

Question: With `COc1ccc(Nc2c3ccccc3nc3ccccc23)cc1` as the molecule, how does the Potency read?
Answer: inconclusive: 25.1 µM [cytotoxic, partial curve, poor fit]

Question: Which Potency does the source give for `COc1ccccc1/C=C/C(=O)OCC(=O)Nc1ccc(Cl)cn1` here?
Answer: inactive

Question: For `COC(=O)C1=C(C)N(c2ccc(Cl)c(Cl)c2)C(=O)C1`, which Potency is on record?
Answer: inactive

Question: With `O=c1c2ccc(Cl)cc2nc(-c2ccc([N+](=O)[O-])cc2)n1O` as the molecule, how does the Potency read?
Answer: inconclusive: 15.8 µM [cytotoxic, partial curve]

Question: With `CCC(C)N1C(=O)S/C(=C/c2ccc(Sc3nc4ccccc4[nH]3)o2)C1=O` (stereo unspecified) as the molecule, how does the Potency read?
Answer: inconclusive: 15.8 µM [cytotoxic, single point]

Question: Which Potency does the source give for `Cc1cc2c(N=O)c(NO)ccc2[nH]1` here?
Answer: inconclusive: 3.55 µM [cytotoxic, single point]

Question: For `COc1ccccc1N(CC(=O)NCCSCc1ccc(C)cc1)S(=O)(=O)c1ccccc1`, which Potency is on record?
Answer: inconclusive: 22.4 µM [cytotoxic, single point]

Question: With `COc1ccc(-c2oc3c(OC)c(OC)c(OC)c(O)c3c(=O)c2OC)cc1OC` as the molecule, how does the Potency read?
Answer: inconclusive: 35.5 µM [rising, single point]

Question: For `O=C1C=C(Nc2ccccc2O)c2ccccc2C1=O`, which Potency is on record?
Answer: active: 20 µM

Question: Which Potency does the source give for `CN1CCN(CC#CCn2c3ccccc3c3ccccc32)CC1` here?
Answer: inactive

Question: Which Potency does the source give for `Cc1ccc(-c2c(C#N)c(N)n3c(nc4ccccc43)c2C#N)cc1` here?
Answer: inconclusive: 31.6 µM [rising, partial curve]

Question: Which Potency does the source give for `CCOc1ccccc1N1CCN(c2ncnc3scc(-c4ccc(OC)cc4)c23)CC1` here?
Answer: inconclusive: 39.8 µM [cytotoxic, single point]

Question: Which Potency does the source give for `O=c1nccc(N/N=C/c2ccccc2O)[nH]1` here?
Answer: inconclusive: 5.62 µM [rising, partial curve, poor fit]

Question: With `CCOC(=O)Oc1c(OC)cc(C(=O)O[C@@H]2C[C@@H]3CN4CCc5c([nH]c6cc(OC)ccc56)[C@H]4C[C@@H]3[C@H](C(=O)OC)[C@H]2OC)cc1OC` as the molecule, how does the Potency read?
Answer: inconclusive: 11.2 µM [rising, partial curve, poor fit]

Question: With `NC(Cc1ccccc1)c1csc(Nc2nccc(C(F)(F)F)n2)n1` (stereo unspecified) as the molecule, how does the Potency read?
Answer: inconclusive: 10 µM [cytotoxic, partial curve]

Question: With `CC1=CC(C)(C)Nc2ccc(OC(=O)CN3C(=O)C4CCCCC4C3=O)cc21` (stereo unspecified) as the molecule, how does the Potency read?
Answer: inconclusive: 28.2 µM [rising, partial curve]

Question: With `O=C(Nc1nc(-c2ccc(F)c(F)c2)cs1)Nc1ccc(F)cc1F` as the molecule, how does the Potency read?
Answer: inconclusive: 2.51 µM [cytotoxic, partial curve, poor fit]

Question: For `CCCCC(=O)NC(c1ccccc1OC)c1ccc2cccnc2c1O` (stereo unspecified), which Potency is on record?
Answer: inconclusive: 1.78 µM [cytotoxic, partial curve, poor fit]

Question: With `CCCC(=O)Nc1c(C(=O)OCC)[nH]c2ccccc12` as the molecule, how does the Potency read?
Answer: inactive

Question: With `OC(c1ccccc1)(c1nc(/C=C/c2ccc(C(F)(F)F)cc2)cs1)C(F)(F)F` (stereo unspecified) as the molecule, how does the Potency read?
Answer: inconclusive: 35.5 µM [cytotoxic, single point]

Question: With `Cc1ccc(S(=O)(=O)Nc2cc(Cl)c(O)c3ncccc23)cc1` as the molecule, how does the Potency read?
Answer: inconclusive: 3.16 µM [cytotoxic, single point]

Question: For `COc1ccc(OC)c(C(=O)/C=C/c2ccccc2C(F)(F)F)c1`, which Potency is on record?
Answer: inconclusive: 3.16 µM [cytotoxic, single point]

Question: With `CCc1nc2ccc(C(=O)Nc3cccc(NS(C)(=O)=O)c3)cn2c1N(CC)Cc1cccc(Br)c1` as the molecule, how does the Potency read?
Answer: inconclusive: 28.2 µM [cytotoxic, single point]

Question: Which Potency does the source give for `O=C(N/N=C/c1ccc(O)cc1O)c1ccc(NC(=O)C2CCCCC2)cc1` here?
Answer: inconclusive: 0.891 µM [cytotoxic, full curve]

Question: Which Potency does the source give for `COc1ccccc1N(CC(=O)N/N=C(\C)c1ccccc1O)S(=O)(=O)c1ccc(C)cc1` here?
Answer: inconclusive: 14.1 µM [cytotoxic, single point]

Question: For `O=C(c1ccc(CS(=O)Cc2ccccc2Cl)o1)N1CCN(c2cccc(Cl)c2)CC1` (stereo unspecified), which Potency is on record?
Answer: inconclusive: 35.5 µM [cytotoxic, single point]

Question: Which Potency does the source give for `CC1(C)CCN2CCC(C)(C)c3c(O)ccc1c32` here?
Answer: inconclusive: 3.16 µM [cytotoxic, partial curve]

Question: For `Cc1ccc(-c2nc3ccc(Cl)cn3c2CC(C)(C)C)cc1`, which Potency is on record?
Answer: inactive

Question: For `Cc1ccc(-c2nnc(N3CCC(C)CC3)c3ccccc23)cc1C`, which Potency is on record?
Answer: inconclusive: 7.08 µM [cytotoxic, single point]

Question: For `COc1cc(C(=O)N/N=C(\Cc2ncc[nH]2)c2ccccc2)cc(OC)c1OC`, which Potency is on record?
Answer: inconclusive: 3.55 µM [cytotoxic, single point]

Question: For `Oc1c(C(Nc2cccc(C(F)(F)F)c2)c2ccncc2)ccc2cccnc12` (stereo unspecified), which Potency is on record?
Answer: active: 8.91 µM

Source: PubChem BioAssay AID1745849 (National Center for Advancing Translational Sciences (NCATS), 2022)
